According to US20250340636A1, “ANTIBODIES TARGETING L1CAM AND USES THEREOF” (MEMORIAL SLOAN-KETTERING CANCER CENTER, priority 2023, published 2025):

Experiment: ADC analytical characterization (LC-MS, UV, SEC, HIC, SDS-PAGE, endotoxin)
Format: physicochemical
Details: for % Purity (SEC), monomeric: 280 nm; for % Purity (SEC), monomeric / % free reagent related species: SEC; for % free reagent related species: 495 nm; for Average DAR (UV): UV absorbance
Description: LC-MS analysis. LC-MS analysis was carried out using a Waters XEVO G2S TOF mass spectrometer and a POROSHELL 300SB C3 column (2.1×12.5 mm, 5 μm) connected to a Waters Acquity H Class UPLC system. The mobile phase was buffer A (0.1% formic acid in water). A gradient (2.5 min 10% B, 10-80% B gradient in 3.5 min) was applied using Buffer B (acetonitrile, 0.1% formic acid) at a flow rate of 0.4 mL/min. The column was maintained at 60° C. throughout the analysis. ADCs were analyzed after dilution to 0.1 mg/mL. 10 μL of ADC solution were injected for analysis. Average DAR was calculated as the weighted average of the observed DAR species based on main glycoforms signal intensity (SI) on the deconvoluted m/z spectra. Average MW was calculated as the weighted average of the observed DAR species main glycoforms MWs on the deconvoluted m/z spectra, as follows:
SEC analysis. Analytical SEC (size exclusion chromatography) was carried out using an ACQUITY UPLC BEH SEC column (4.6 mm×15 cm, 200 A, 1.7 μm) and guard column (4.6 mm×3 cm), connected to a Dionex Ultimate 3000 UPLC system. The mobile phase was 0.2 M potassium phosphate buffer, pH 6.8, 0.2 M potassium chloride, 15% (v/v) isopropanol. The flow rate was kept constant at 0.35 mL/min. The column was maintained at 30° C. throughout the analysis. The analysis was carried out in a 10 min isocratic elution with UV detection at 280 nm and 495 nm. 10 μg of ADC were injected for analysis. The percentage of high molecular weight (HMW) species was calculated by comparing the peak area corresponding to HMW species at 280 nm to total peak area corresponding to HMW and monomeric species at 280 nm. The percentage of free reagent related species was calculated by comparing the peak area corresponding to free reagent related species at 495 nm to total peak area corresponding to HMW and monomeric species at 495 nm.
HIC analysis. Analytical HIC was carried out using a TOSOH Bioscience TSKgel Butyl-NPR column (4.6 mm×3.5 cm, 2.5 μm), connected to a Dionex Ultimate 3000 UPLC system. The mobile phase was buffer A: 1.5 M ammonium sulfate, 50 mM sodium phosphate, pH 7.0. […] The column was maintained at 30° C. throughout the analysis. The analysis was carried with UV detection at 280 nm. 10 μg of ADC were injected per analysis.
SDS-PAGE analysis. SDS-PAGE analysis was carried out using NuPAGE® 4-12% Bis-Tris gels (Invitrogen) under non-reducing conditions with MES buffer. Prior to analysis, each sample was incubated for 1 h at 40° C. in 10% SDS solution. For analysis, 1 μg of ADC sample (based on protein) was loaded onto the gel per lane. Electrophoresis was carried out at 200 V for 35 min. The gels were stained with InstantBlue™ (Expedeon) for protein detection and analyzed using a ChemiDoc™ imaging system (Bio-Rad).
Concentration and average DAR determination by UV absorbance. The concentration and average DAR of the conjugates were determined by UV absorbance at 280 nm (A280) and at a wavelength λ corresponding to a maximum of absorbance for the linker-payload (Aλ) using a Nanodrop 2000 spectrophotometer. Measurements were taken in triplicate and the average values used for calculations. The average DAR was calculated using the following formula: […]
Endotoxin level determination method. The EndoSafe®-PTST™ platform (Charles River) was used to determine the level of endotoxin. EndoSafe®-PTST™ is a chromogenic kinetic test system aligned with USP <85> and Pharm Eur 2.6.14 that provides quantitative Limulus Amebocyte Lysate (LAL) results. The EndoSafe®-PTST™ utilizes LAL reagents in FDA-licensed disposable test cartridges which are pre-loaded with all the reagents required to perform a LAL test. The EndoSafe®-PTST™ mimics licensed LAL kinetic chromogenic methodology by measuring color intensity directly related to the endotoxin concentration in a sample; the concentrations are calculated against an internal standard curve (0.01-1.00 EU/mL) associated with the lot number of the cartridges.

B1: h14A10 ThioBridge ®-Glu[-Glu(OH)-Val-Cit-PAB-DMEA-PNU159682]-PEG(24) (conjugate)
heavy: EVQMVESGGGLVQPGGSLRLSCAAPGFIFSSYNMNWVRQAPGKGLEWVSYISSSSSTTYYADSVKGRFTISRDNAKNSLYLQMNSLRDEDTAVYYCASLYSGYDYYYYYGMDVWGQGTTVTVSS[human IgG1 constant region not printed]
light: DIVMTQTPLSSPVSLGQPASISCRSSQSLVHSDGNTYLSWLQQRPGQPPRVLIYKISKRFSGVPDRFSGSGAGTDFTLKISRVEAEDVGVYYCMQATQFPFTFGPGTKVDIKRTVAAPSVFIFPPSDEQLKSGTASVVCLLNNFYPREAKVQWKVDNALQSGNSQESVTEQDSKDSTYSLSSTLTLSKADYEKHKVYACEVTHQGLSSPVTKSFNRGEC
modifications: non-natural residues
Endotoxin: chromatogram 1.1 EU/mg
Average DAR (LC-MS): Average DAR: 4.1
% Purity (SEC), monomeric: 95.4% monomeric
% free reagent related species: chromatogram 2.5%
Average DAR (UV): Average DAR: 4.1

B2: hz143G03 (N61Q) ThioBridge ®-Glu[-Glu(OH)-Val-Cit-PAB-DMEA-PNU159682]-PEG(24) (conjugate)
heavy: QVQLVQSGAEVKKPGSSVKVSCKASGYTFTNYYIHWVRQAPGQGLEWMGKIGPGSGSPYYQGMFKDRVTITADESTSTAYMELSSLRSEDTAVYYCARWLLPFDYWGQGTLVTVSS[human IgG1 constant region not printed]
light: EIVLTQSPGTLSLSPGERATLSCRASSSVNYMHWYQQKPGQAPRLLIYATSILASGIPDRFSGSGSGTDYTLTISRLEPEDFAVYYCQQFSSDPLTFGGGTKVEIKRTVAAPSVFIFPPSDEQLKSGTASVVCLLNNFYPREAKVQWKVDNALQSGNSQESVTEQDSKDSTYSLSSTLTLSKADYEKHKVYACEVTHQGLSSPVTKSFNRGEC
modifications: non-natural residues
Endotoxin: 1.5 EU/mg
Average DAR (LC-MS): Average DAR: 4.4
% Purity (SEC), monomeric: 96.7% monomeric See FIG. 19H
% free reagent related species: 1.2 See FIG. 19E %
Average DAR (UV): Average DAR: 3.9
